In all, about 270,000 compounds went through this assay and about 5,800 (2.1%) were called active. Inconclusive means that the source gave no clear call. Such entries were picked first, then a sample of the others. Calls come from the whole dose curve; as a rule, active = well fitted inhibition curve with a large enough effect; inconclusive = small, poorly fitted or top-dose-only effect; inactive = flat fitted curve, though single readings scatter. A potency beside an inconclusive call is a rough fit, not a confirmed value.
These molecules were tested against Microtubule-associated protein tau (Homo sapiens) (UniProt P10636) (assay: qHTS for Inhibitors of Tau Fibril Formation, Thioflavin T Binding). Conditions: recombinant tau K18 P301L (four-repeat tau fragment), heparin-induced fibrillization, ThT fluorescence; series mostly up to 57.4 µM.
UniProt P10636, sequence (P10636 whole entry, looked up, the tested form may be a part): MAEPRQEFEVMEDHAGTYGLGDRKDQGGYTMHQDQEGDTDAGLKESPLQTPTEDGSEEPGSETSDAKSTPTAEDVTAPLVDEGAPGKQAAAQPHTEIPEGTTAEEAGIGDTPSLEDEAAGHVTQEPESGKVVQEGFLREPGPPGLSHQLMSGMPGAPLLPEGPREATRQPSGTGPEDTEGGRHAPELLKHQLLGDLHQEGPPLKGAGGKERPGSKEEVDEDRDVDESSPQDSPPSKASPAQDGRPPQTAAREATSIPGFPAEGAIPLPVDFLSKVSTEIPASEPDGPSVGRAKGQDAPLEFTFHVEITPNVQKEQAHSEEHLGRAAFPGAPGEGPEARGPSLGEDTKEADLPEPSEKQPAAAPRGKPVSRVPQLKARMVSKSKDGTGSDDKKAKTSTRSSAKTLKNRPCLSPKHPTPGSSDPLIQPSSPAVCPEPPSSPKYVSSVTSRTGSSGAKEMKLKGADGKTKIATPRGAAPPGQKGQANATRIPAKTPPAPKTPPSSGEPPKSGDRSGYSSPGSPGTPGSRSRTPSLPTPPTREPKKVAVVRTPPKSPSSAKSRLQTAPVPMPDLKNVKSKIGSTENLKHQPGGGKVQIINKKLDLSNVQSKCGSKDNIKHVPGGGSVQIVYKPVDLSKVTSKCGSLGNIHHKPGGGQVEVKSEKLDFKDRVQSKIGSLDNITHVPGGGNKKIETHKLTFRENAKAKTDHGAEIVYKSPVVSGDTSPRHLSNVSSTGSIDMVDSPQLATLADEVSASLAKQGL
Method in brief: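 Tau K18 P301L fragment (15 uM unlabeled plus 0.24 uM Alexa 594-labeled) in 100 mM sodium acetate pH 7 with compound, fibrillization induced by 20 uM heparin for 6 hr at 37 C. Thioflavin T (30 uM) added, fluorescence read after 1 hr (ex 450, em 510 nm).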
In the case of `O=C1NC(=O)N(c2ccc(Cl)cc2)C(=O)/C1=C/c1coc2ccc(O)cc2c1=O`, the Potency is reported as inconclusive: 5.01 µM [inhibitor, partial curve]. In the case of `CN(C)c1ccc(P(=O)(Nc2ccc([N+](=O)[O-])cc2)N2CCOCC2)c(NC(=O)c2cccs2)c1` (stereo not drawn), the Potency is reported as inconclusive: 22.4 µM [inhibitor, single point]. In the case of `Cc1cccc(CN2CCN(c3ccc(Cl)cc3)CC2)c1`, the Potency is reported as inconclusive: 11.2 µM [inhibitor, partial curve]. With `CN1CCN(c2cc(N3CCCCCC3)c(F)cc2[N+](=O)[O-])CC1` the Potency was inconclusive: 28.2 µM [inhibitor, partial curve]. With `COc1ccc2c3c([nH]c2c1)C(C)NCC3` (stereo not drawn) the Potency was inconclusive: 1.12 µM [inhibitor, single point]. For `O=C(CN1CC=C(c2ccccc2)CC1)NC(=O)NC1CCCCC1`, the Potency was inconclusive: 44.7 µM [inhibitor, partial curve]. With `COc1ccc(/C=C2/C(=O)NC(=O)N(C3CCCCC3)C2=O)cc1CSc1ccccn1` the Potency was inconclusive: 14.1 µM [inhibitor, partial curve]. `Cc1ccc(/C=C2\C(=O)NC(=S)N(c3ccc(F)cc3)C2=O)s1` was tested, and the Potency was inconclusive: 3.98 µM [inhibitor, partial curve]. With `COc1ccc(OCC(=O)N2CCN(Cc3cc(=O)n4nc(-c5ccc(OC)cc5)sc4n3)CC2)cc1` the Potency was inconclusive: 4.47 µM [inhibitor, full curve]. For `COc1ccc(CC2C(=O)NC(=O)N(c3ccccc3)C2=O)c(OC)c1` (stereo not drawn), the Potency was inconclusive: 39.8 µM [inhibitor, single point]. In the case of `CN(CCc1ccc(Cl)c(Cl)c1)[C@@H]1CCCC[C@@H]1N1CCCC1`, the Potency is reported as inconclusive: 39.8 µM [inhibitor, single point]. In the case of `CCOc1cc2[nH]c(=O)n(CCCC(=O)N3CCN(c4cccc(Cl)c4)CC3)c(=O)c2cc1OCC`, the Potency is reported as inconclusive: 17.8 µM [inhibitor, partial curve]. `CN(C)c1ccc(C=C2C(=O)NC(=S)NC2=O)cc1[N+](=O)[O-]` was tested, and the Potency was active: 31.6 µM. In the case of `CN1C(=O)C(=Cc2ccccc2Oc2ccc(Cl)cc2)C(=O)N(C)C1=O`, the Potency is reported as inconclusive: 14.1 µM [inhibitor, partial curve]. For `COc1ccc(Cn2c(O)c(/C=N/NC(=O)c3ccccc3O)c(=O)[nH]c2=O)cc1`, the Potency was active: 22.4 µM. With `Cn1c(O)c(C2=NNC(c3ccc(Cl)cc3)C2)c(=O)n(C)c1=O` (stereo not drawn) the Potency was inconclusive: 7.94 µM [inhibitor, partial curve]. For `Cc1c(C=C2C(=O)N(C)C(=O)N(C)C2=O)c(=O)n(-c2ccccc2)n1C`, the Potency was inconclusive: 1.78 µM [inhibitor, full curve, poor fit]. `CN(C(=O)Cc1ccc(Cl)c(Cl)c1)C(CN1CCCC1)c1cccc(OCC(=O)O)c1` (stereo not drawn) was tested, and the Potency was inconclusive: 0.178 µM [inhibitor, full curve, poor fit]. For `Cc1ccc(S(=O)(=O)n2[nH]c(=O)cc2NC(=O)c2cccs2)cc1`, the Potency was inconclusive: 1 µM [inhibitor, single point]. In the case of `COc1ccc(OC)c(C2C(C#N)=C(N)Oc3c2c(C)nn3-c2ccc(C)cc2)c1` (stereo not drawn), the Potency is reported as inconclusive: 17.8 µM [inhibitor, partial curve]. For `O=C1NC(=O)N(c2ccccc2)C(=O)/C1=C/c1ccoc1`, the Potency was inconclusive: 3.55 µM [inhibitor, full curve]. With `COc1ccccc1N1C(=O)NC(=O)C2(Cc3cc(C)ccc3N(C)C2)C1=O` (stereo not drawn) the Potency was inconclusive: 31.6 µM [inhibitor, single point]. With `O=c1[nH]c(=S)n(-c2ccccc2F)c(O)c1C=Nc1ccc(N2CCOCC2)cc1` the Potency was inconclusive: 15.8 µM [inhibitor, partial curve]. With `CC(=O)NC1N=C(C)N(c2ccccc2)C1=O` (stereo not drawn) the Potency was inconclusive: 25.1 µM [inhibitor, partial curve]. In the case of `COC(=O)[C@@]1(C#N)[C@@H]2C=CC(C(C)=O)=CN2[C@@H](C(N)=O)[C@@H]1c1ccc(F)cc1`, the Potency is reported as “inactive”. With `O=C1C(Cl)=C(N2CCCCCC2)C(=O)N1c1ccccc1` the Potency was active: 25.1 µM. In the case of `CCOc1cc(/C=N/NC(=O)c2cccs2)ccc1OC(=O)N1CCOCC1`, the Potency is reported as inconclusive: 17.8 µM [inhibitor, single point]. `CN(C)C1C(=O)C(C(N)=O)=C(O)[C@@]2(O)C(=O)C3=C(O)c4c(O)cccc4[C@@](C)(O)C3CC12` (stereo partly drawn) was tested, and the Potency was inconclusive: 22.4 µM [inhibitor, partial curve, poor fit]. For `CN1C(=O)/C(=C\c2ccc(N3CCCCCC3)cc2)C(=O)NC1=S`, the Potency was inconclusive: 20 µM [inhibitor, partial curve]. `O=C(Nc1ccc(Cl)cc1)Nc1nccs1` was tested, and the Potency was inconclusive: 20 µM [activator, partial curve, poor fit]. In the case of `Cc1cc(C)c(Cn2c(C(=O)O)c(C=O)c3ccccc32)c(C)c1`, the Potency is reported as “inactive”. In the case of `COCC(C)OC(=O)c1c(N)n(Cc2ccco2)c2nc3ccccc3nc12` (stereo not drawn), the Potency is reported as inconclusive: 25.1 µM [inhibitor, partial curve]. `O=C1NC(=O)C(C/C=C/c2ccccc2)C(=O)N1` was tested, and the Potency was inconclusive: 17.8 µM [inhibitor, partial curve]. With `CCCNC(=O)c1c(N)n(Cc2ccc3c(c2)OCO3)c2nc3ccccc3nc12` the Potency was inconclusive: 25.1 µM [inhibitor, partial curve]. In the case of `CC1CN=C(Nc2ccccc2)S1` (stereo not drawn), the Potency is reported as “inactive”. In the case of `CC1=NN(c2ccccc2)C(=O)C1=C(C)C`, the Potency is reported as active: 11.2 µM. With `CCC(C)N1C(=O)/C(=C/c2ccc3c(c2)CCN3CCCCl)C(=O)NC1=S` (stereo not drawn) the Potency was active: 31.6 µM. With `COC(=O)[C@@H]1C[C@@]2(O)[C@@H](O)[C@@H](O)[C@@H](O)C[C@H]2N1Cc1cccnc1` the Potency was “inactive”. For `Nc1c(C(=O)NC2CCCC2)c2nc3ccccc3nc2n1CC1CCCO1` (stereo not drawn), the Potency was “inactive”. `CC1(C)Cc2c(sc3c2C(=O)NC(c2cccnc2)N3)CO1` (stereo not drawn) was tested, and the Potency was inconclusive: 31.6 µM [inhibitor, single point]. With `CCC1CN2CCc3cc(OC)c(OC)cc3C2CC1CC1NCCc2cc(OC)c(OC)cc21` (stereo not drawn) the Potency was inconclusive: 8.91 µM [inhibitor, partial curve]. With `O=C(c1ccncc1)C12CN3CN(CN(C3)C1)C2` the Potency was “inactive”. In the case of `O=C1NC(=O)N(c2ccccc2F)C(=O)/C1=C/c1ccc(Sc2nc3ccccc3[nH]2)o1`, the Potency is reported as active: 12.6 µM. In the case of `CSc1ncc(/C=C2/C(=O)NC(=O)N(c3ccc(C(C)C)cc3)C2=O)cn1`, the Potency is reported as active: 25.1 µM. `O=C1NC(=O)N(c2ccc3c(c2)OCO3)C(=O)/C1=C/c1ccc(N2CCCC2)o1` was tested, and the Potency was inconclusive: 14.1 µM [inhibitor, partial curve]. With `Cc1ccccc1-n1c(O)c(/C=N/Nc2nc3c(c(=O)n(C)c(=O)n3C)n2C)c(=O)[nH]c1=S` the Potency was inconclusive: 14.1 µM [inhibitor, partial curve]. With `CCCCC/C(=N\O)c1c[nH]c2ccccc12` the Potency was inconclusive: 14.1 µM [inhibitor, partial curve]. For `C=CCN1C(=O)NC(=O)/C(=C/c2cccn2C)C1=O`, the Potency was inconclusive: 31.6 µM [inhibitor, partial curve]. With `CCOc1ccc(N(CC)S(=O)(=O)c2ccc3c(c2)oc(=O)n3C)cc1` the Potency was inconclusive: 25.1 µM [inhibitor, partial curve, poor fit]. For `CN1C(=O)C(Cc2c[nH]c3ccccc23)C(=O)N(C)C1=O`, the Potency was active: 22.4 µM. `CCCCCCCCc1[se]c2ccccc2c1[Se]c1ccccc1` was tested, and the Potency was “inactive”. With `Cc1c(N=Nc2c(O)n(Cc3ccccc3)c(=O)[nH]c2=O)c(=O)n(-c2ccccc2)n1C` the Potency was inconclusive: 17.8 µM [inhibitor, partial curve]. For `CC(C)Oc1ccc(Cc2c(O)[nH]c(=O)[nH]c2=O)cc1`, the Potency was inconclusive: 31.6 µM [inhibitor, partial curve]. `O=C(Oc1ccc2ccc(OC(=O)N3CCCCCC3)cc2c1)N1CCCCCC1` was tested, and the Potency was inconclusive: 1.26 µM [inhibitor, full curve]. In the case of `COC(=O)C1C=C2c3cccc4[nH]cc(c34)CC2N(C)C1` (stereo not drawn), the Potency is reported as active: 17.8 µM. `Cc1cccc(N2C(=O)CC(=O)NC2=O)c1` was tested, and the Potency was inconclusive: 15.8 µM [inhibitor, partial curve]. For `C=CCN(CC=C)C(=O)Nc1ccc(OCC)cc1`, the Potency was inconclusive: 14.1 µM [inhibitor, partial curve]. For `O=C(O)CCn1cc(C=C2C(=O)NC(=S)NC2=O)c(-c2ccccc2)n1`, the Potency was “inactive”. With `O=C1NC(=O)N(c2ccccc2F)C(=O)/C1=C/c1ccc(Oc2ccc([N+](=O)[O-])cn2)cc1` the Potency was inconclusive: 10 µM [inhibitor, partial curve]. For `C[C@@H](N)Cc1cnc[nH]1`, the Potency was “inactive”. For `Fc1ccc(C2=CCN(C(c3cccs3)c3nnnn3CCc3ccccc3)CC2)cc1` (stereo not drawn), the Potency was inconclusive: 14.1 µM [inhibitor, partial curve]. In the case of `O=C(O)CCn1cc(C=C2C(=O)NC(=S)NC2=O)c(-c2cc3ccccc3oc2=O)n1`, the Potency is reported as “inactive”. With `CN(Cc1c[nH]c2ccccc12)C1CCCCC1` the Potency was inconclusive: 14.1 µM [inhibitor, partial curve]. With `O=C(CN1CCCCC1)c1cccc(Br)c1` the Potency was “inactive”. In the case of `CCCn1c(C)cc(C=O)c1C`, the Potency is reported as “inactive”. With `CCN(CC)c1ccc(/C=C/[N+](=O)[O-])cc1` the Potency was active: 15.8 µM. For `COc1ccc(C(=O)CN2CCOCC2)cc1F`, the Potency was inconclusive: 10 µM [inhibitor, partial curve]. `CC1CC(OP(O)(=S)c2ccc(N(C)C)cc2NC(=O)c2cccs2)CC(C)(C)C1` (stereo not drawn) was tested, and the Potency was inconclusive: 28.2 µM [inhibitor, partial curve].
Note: nearly all actives have a fitted effect of over 55% in size.
Potency is the fitted concentration of half-maximal effect; tags give direction and shape of the fitted curve.
